84 variants from the RNAGym collection of RNA variant scans (doi:10.1073/pnas.2313332121) can be followed below.

Variants at the background level are over-represented here.

B1: TPR 5TU (parent)
chain: GGAUCUUCUCGAUCUAACAAAAAAGACAAAUCUGCCACAAAGCUUGAGAGCAUCUUCGGAUGCAGAGGCGGCAGCCUUCGGUGGCGCGAUAGCGCCAACGUUCUCAACUAUGACACGCAAAACGCGUGCUCCGUUGAAUGGAGUUUAUCAUG

Variants of B1 are the subject of the data set. The data set can be described thus: polymerase ribozyme fitness, log enrichment relative to wild type (log ratio); higher = more active; in vitro selection for triplet polymerase activity. In outline:
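Fitness measures genotype enrichment against wild-type enrichment on a logarithmic scale, with inverse-variance-weighted averaging of replicates. The logarithm is base 2, and genotypes were kept only with ≥10 input reads and ≥1 read per output in Illumina sequencing. The sequenced libraries came from one triplicate in vitro selection round, including frozen incubation at −7 °C, of PCR-built, transcribed mutant libraries of each subunit of a heterodimeric triplet polymerase ribozyme.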
Turning to A21G C27A G50U C85U C123G, the “polymerase ribozyme fitness (log ratio)” value is ≤ -4.2.

With A21G G62A A64U C116G, the “polymerase ribozyme fitness (log ratio)” value is ≤ -4.2. With A21C U45A U61A C93A G117U G128A, the “polymerase ribozyme fitness (log ratio)” value was ≤ -4.2. With A22C A91G C123U G140C U151G, the “polymerase ribozyme fitness (log ratio)” value is ≤ -4.2.

Consider A21U G46C A49G C85U A97C C118U U145G, for which the “polymerase ribozyme fitness (log ratio)” value is ≤ -4.2. For A21G G48A U61G C79G C93G C116G A142U G143A the value was ≤ -4.2; for A21G G59C U77G A89U A122G U135G, ≤ -4.2. For A21U C27A G46C G59U G65A C87G U148C the value was ≤ -4.2; for A21C U101G C103A C108U, ≤ -4.2; for A21C G50C C63U C93G, -1.78.

Turning to A21U G68A C85G, the “polymerase ribozyme fitness (log ratio)” value is ≤ -4.2. In the case of A21C C96U, the “polymerase ribozyme fitness (log ratio)” value came out at 0.207. As for A21C C116U A119U G124A G128U, the “polymerase ribozyme fitness (log ratio)” value is ≤ -4.2. As to A21U A142U, the “polymerase ribozyme fitness (log ratio)” value is -0.552.

For the variant A21G U31G A52U G65A G67C C87A C99A G140U G143U, the “polymerase ribozyme fitness (log ratio)” value was ≤ -4.2.

For the variant A22C G48U A60G, the “polymerase ribozyme fitness (log ratio)” value was found to be 0.164.

As for A21U A73G C129G, the “polymerase ribozyme fitness (log ratio)” value was -3.49. For A21U C54U A64C G65U G81A the value was ≤ -4.2. For A21U C43A U61A G67U C79U G84C A89C the value was ≤ -4.2. A21G A28C U55A G74C U146C: the “polymerase ribozyme fitness (log ratio)” value is ≤ -4.2. For A21C A40C G94A G128U the value was -3.51; for A21C C72G A73U C93U C99G G126U, ≤ -4.2; for A22C A40U C54U G94A, -0.982. A21G A29U U44G C79G: the “polymerase ribozyme fitness (log ratio)” value is ≤ -4.2. As for A22C A26G A30U U45G G74C C103G G140U, the “polymerase ribozyme fitness (log ratio)” value was ≤ -4.2. For A22C G46A G84C C95U U130C the value was ≤ -4.2; for A21U A52G G71C C85U C132U U135C G136C U151G, ≤ -4.2.

In the case of A21U C76G C96U U104G C125U U134C U148G, the “polymerase ribozyme fitness (log ratio)” value is ≤ -4.2. For the variant A21U C69A G126U G140U U145G, the “polymerase ribozyme fitness (log ratio)” value is ≤ -4.2. For the variant A21G U144A, the “polymerase ribozyme fitness (log ratio)” value came out at 0.357.

A21G A29U G50C A98U C125U U127A: the “polymerase ribozyme fitness (log ratio)” value is ≤ -4.2.

Consider A21U C93G A107G, for which the “polymerase ribozyme fitness (log ratio)” value was ≤ -4.2. For A21C C27G C57A C76A the value was ≤ -4.2.

With A21U C43G C96U C99U A119U, the “polymerase ribozyme fitness (log ratio)” value was ≤ -4.2.

In the case of A21C U31A A49C U61A C93U G126U A150G, the “polymerase ribozyme fitness (log ratio)” value is ≤ -4.2. Take A21U U33C C35G U146A: the “polymerase ribozyme fitness (log ratio)” value was ≤ -4.2.

For A21C G42C C79A C96U A115G C118G, the “polymerase ribozyme fitness (log ratio)” value was ≤ -4.2.

In the case of A22C C32A C36U G58C G62U C99U A121G G133A A142C, the “polymerase ribozyme fitness (log ratio)” value was ≤ -4.2. As for A21C A29U C43A U55A G83A A107C, the “polymerase ribozyme fitness (log ratio)” value was ≤ -4.2. As for A21U A24G A37C U61A C87U, the “polymerase ribozyme fitness (log ratio)” value was ≤ -4.2.

Regarding A21U C85A C87U U101G A119U G126A, the “polymerase ribozyme fitness (log ratio)” value is ≤ -4.2. For A22C G65C C85U U101A the value was ≤ -4.2; for A21U A24U A52G C54A U55C G58C G88U C93A C103A, ≤ -4.2. For A22C A39C U44G G46C C76U A107G A121U the value was ≤ -4.2. For A22C G59C U78C C85A U144A A150U the value was ≤ -4.2; for A21U C32A G58C, ≤ -4.2.

For A21U C32G A73U C79G G88A, the “polymerase ribozyme fitness (log ratio)” value is ≤ -4.2. For A21G C27G C114U U135G U146A U148G the value was ≤ -4.2; for A22C C27G A37C A73G U146A G152U, ≤ -4.2; for A21U A47C C51U C95A C103A, ≤ -4.2.

For A21C A30C G48C G58C G68U C125A U144A, the “polymerase ribozyme fitness (log ratio)” value was ≤ -4.2. For A21G A29G G83C A98U the value was ≤ -4.2; for A22C C57U A60U C69G, -1.7; for A21U A28C U31G A47G C85U C116G C129A G133A, ≤ -4.2.

As to A22C C36U C51A C75G C87U, the “polymerase ribozyme fitness (log ratio)” value is ≤ -4.2. For A21U G42A G94A the value was ≤ -4.2; for A22C A29G C54G G86C A106C G126A G133A, ≤ -4.2. For A21G A47U G59U C76A C123U the value was ≤ -4.2; for A21C A47C G67A, ≤ -4.2. With A22C C75G G84U C93U U109G G143C, the “polymerase ribozyme fitness (log ratio)” value is ≤ -4.2. In the case of A21G U33G U44A G59A A60U G84A C87G U90A U111G G136U, the “polymerase ribozyme fitness (log ratio)” value was ≤ -4.2. As for A21U A30G U61A G86A C93A G128U G141A U148C, the “polymerase ribozyme fitness (log ratio)” value is ≤ -4.2. For A21C A52U U53G G83A A121G the value was ≤ -4.2; for A21U G70U C72G U146G, ≤ -4.2. With A21U C27G A41G A60G C103U, the “polymerase ribozyme fitness (log ratio)” value is ≤ -4.2. For A22C A24C U61G G88U the value was ≤ -4.2; for A21G A29U C76U C79G, ≤ -4.2; for A21U G141A, 1.36. Turning to A22C A41U C93A A120G U130G, the “polymerase ribozyme fitness (log ratio)” value is ≤ -4.2.

As to A21G G68U C87U C105G U111C, the “polymerase ribozyme fitness (log ratio)” value was ≤ -4.2. With A21U A23U A24C C54U G81A C85U, the “polymerase ribozyme fitness (log ratio)” value is ≤ -4.2. For A21G A29U G81U C87U A107U U146G the value was ≤ -4.2; for A22C G50C A110C G141A, ≤ -4.2; for A21U U53G U56A G68C C69U, ≤ -4.2. For A21U A30G U53A A64U C87U G100A U102A the value was ≤ -4.2.

For A21U A47C G48C G84U, the “polymerase ribozyme fitness (log ratio)” value was ≤ -4.2.

For the variant A21C A40G U45A C85A G133U G143U, the “polymerase ribozyme fitness (log ratio)” value was ≤ -4.2.

Take A21U U33G U55A G92A U135A: the “polymerase ribozyme fitness (log ratio)” value was ≤ -4.2. For A21U A60C C87A A98G G100C the value was ≤ -4.2; for A21G G46A A47C C51A A52C C72U A73U C79U C108G C116G C149G, ≤ -4.2; for A21U G25A U44A C72A U82G C93G A142G, ≤ -4.2.

As to A22C C27U C54U C85G A91U G112A A119U A147C A150C, the “polymerase ribozyme fitness (log ratio)” value is ≤ -4.2. As to A21G C43U U44C A64U A73G C103G G117A A121C, the “polymerase ribozyme fitness (log ratio)” value is ≤ -4.2. With A21G A28G G81U G83C, the “polymerase ribozyme fitness (log ratio)” value was ≤ -4.2.
